We go through 75 compounds from the supplement of paper PMC10600219.

Structures can show the parent of a compound that is named as a salt. Over roughly 2,800 compounds, “cell viability relative to vehicle” has its median near 0.98; the lowest 2% begin near 0.45. Some of the results follow.

For the experiment, the system named is NCI-H2228 alectinib-DTP. Description: cell viability relative to vehicle (fraction of vehicle); NCI-H2228 is an ALK-positive lung cancer line and DTP means drug-tolerant persister; higher = less growth inhibition. Particulars: 100 nM; treatment time 6 days. In a few lines:
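NCI-H2228 parental cells and drug-tolerant persister cells were plated in 384-well plates; the persisters had been generated with 1000 nM of a targeted drug over 13 days. One day later, the 3114-agent TargetMol anti-cancer compound library was added at 100 nM, with DMSO serving as vehicle. ATP was measured 6 days after that using the CellTiter-Glo 3D Cell Viability Assay. Values are cell viability expressed relative to vehicle-treated cells.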
`CCCCCCCc1ccc(CCc2cccc(O)c2C(=O)O)cc1` displayed a cell viability of 0.987.

Compound `C/C=C(/C)C(=O)O[C@@H]1[C@H](OC(C)=O)c2c(ccc3ccc(=O)oc23)OC1(C)C` [Praeruptorin A] came in with a cell viability of 0.976.

The compound `CC(C)C[C@H](NC(=O)CNC(=O)c1cc(Cl)ccc1Cl)B1OC(=O)C(CC(=O)O)(CC(=O)O)O1` yielded a cell viability of 0.342.

Turning to `CC[C@@H](CO)NCCN[C@@H](CC)CO` [Ethambutol dihydrochloride], the cell viability stood at 0.951.

`CCN(CC)CCCCNc1ncc2cc(-c3cc(OC)cc(OC)c3)c(NC(=O)NC(C)(C)C)nc2n1` yielded a cell viability of 0.715.

`N#C/C(=C\c1ccc(O)c(O)c1)C(=O)NCc1ccccc1` came in with a cell viability of 0.897.

`C#C[C@]1(O)CC[C@H]2[C@@H]3CCC4=CC(=O)CC[C@@H]4[C@H]3CC[C@@]21CC` [Levonorgestrel] registered a cell viability of 1.04.

Compound `C[C@@H]1CCCCCCCCCCCCC(=O)C1` [Muscone] had a cell viability of 1.09.

`Cc1cc(SCc2sc(-c3ccc(C(F)(F)F)cc3)nc2C)ccc1OCC(=O)O` yielded a cell viability of 1.05.

In the case of `Cc1cc(C(=O)Nc2cccc(C(=O)Nc3cccc(C(F)(F)F)c3)c2)on1`, the cell viability is 1.1.

Take `Cn1cc(-c2ccc3c(c2)CCN3C(=O)Cc2cccc(C(F)(F)F)c2)c2c(N)ncnc21`: the cell viability was determined as 0.952.

With `Oc1cccc(-c2nc(N3CCOCC3)c3oc4ncccc4c3n2)c1`, the cell viability was determined as 0.717.

Regarding `CCC(=O)N1CC[C@H](Nc2ncnc3c2CN(c2cnc(OC)c(C(F)(F)F)c2)CC3)C1` [Leniolisib], the cell viability came out at 0.904.

In the case of `Fc1ccc(-c2c3cccc(C(F)(F)F)c3nn2Cc2ccc(F)cc2Cl)cc1`, the cell viability is 1.03.

`CCOc1cc2c(c(F)c1OCC)C(=N)N(CC(=O)c1cc(N3CCOCC3)c(OC)c(C(C)(C)C)c1)C2` [Atopaxar Hydrobromide] had a cell viability of 1.06.

Compound `O=C(/C=C/c1ccc(O)c(O)c1)O[C@@H]1C[C@](O)(C(=O)O)C[C@@H](O)[C@H]1O` [Chlorogenic Acid] yielded a cell viability of 0.993.

The compound `O=c1ccccn1CC1(O)CCN(Cc2ccccc2)CC1` came in with a cell viability of 1.06.

`CN(C)CC/C=C1/c2ccccc2COc2ccc(CC(=O)O)cc21` [Olopatadine hydrochloride] displayed a cell viability of 0.879.

`Nc1ncnc2n[nH]c(Nc3ccc(F)cc3)c12` had a cell viability of 1.03.

Turning to `CN(C)Cc1ccc(S(=O)(=O)n2ccc(/C=C/C(=O)NO)c2)cc1` [Resminostat hydrochloride], the cell viability is 1.15.

On to `c1ccc(CN(CC2=NCCN2)c2ccccc2)cc1` [Antazoline hydrochloride], for which the cell viability was 1.13.

For the compound `CCc1c(-c2ccc(C(=O)NC)nc2)cnc(N)c1-c1ccc(O)cc1`, the cell viability is 1.13.

On to `C[C@H](NC(=O)C(=O)Nc1ccccc1C(C)(C)C)C(=O)N[C@@H](CC(=O)O)C(=O)COc1c(F)c(F)cc(F)c1F` [Emricasan], for which the cell viability amounted to 0.914.

Compound `C=CC(=O)Nc1cccc(Oc2nc(Nc3ccc(N4CCN(C)CC4)cc3)nc3ccsc23)c1` [Olmutinib] came in with a cell viability of 0.977.

The compound `Cc1ccc(-n2nc(C(C)(C)C)cc2NC(=O)Nc2ccc(OCCN3CCOCC3)c3ccccc23)cc1` [Doramapimod] returned a cell viability of 0.976.

For `O=c1c(-c2ccc(O[C@@H]3O[C@H](CO)[C@@H](O)[C@H](O)[C@H]3O)cc2)coc2cc(O)cc(O)c12` [Sophoricoside], the cell viability is 0.955.

On to `COCCOc1ccc(N2CCN(CCn3ncc4c3nc(N)n3nc(-c5ccco5)nc43)CC2)cc1` [Preladenant], for which the cell viability was 1.02.

In the case of `C=C1CC[C@H]2C(=C)CC[C@H]3C(=C)C(=O)O[C@@H]3[C@@H]12` [Dehydrocostus Lactone], the cell viability turned out to be 0.984.

For the compound `CC(C)S(=O)(=O)c1ccc2nccc(Nc3ccc4scnc4c3)c2c1`, the cell viability was found to be 0.974.

Compound `CC(=O)Nc1ccn([C@@H]2O[C@H](CO)[C@@H](O)[C@H]2O)c(=O)n1` [N4-Acetylcytidine] returned a cell viability of 0.97.

`CNC(=O)c1ccc(C)c(-n2c(C)cc(OCc3ccc(F)cc3F)c(Br)c2=O)c1` displayed a cell viability of 0.926.

Consider `Cc1cc(OCc2nnc(SC3CCCC3)n2-c2cccnc2)ccc1-c1ccc(S(C)(=O)=O)cc1`, for which the cell viability was 0.799.

Compound `O=C1NC(=O)C(=Cc2ccc(-c3ccc(F)cc3)o2)S1` (stereo in doubt) yielded a cell viability of 1.

`CN(C)C/C=C/C(=O)Nc1cc2c(Nc3ccc(F)c(Cl)c3)ncnc2cc1O[C@H]1CCOC1` [Afatinib Dimaleate] gave a cell viability of 0.668.

On to `CN(C)C/C=C/C(=O)Nc1cc2c(Nc3ccc(F)c(Cl)c3)ncnc2cc1O[C@H]1CCOC1` [Afatinib], for which the cell viability came out at 0.829.

`C=C(C)[C@@H]1CC=C(CO)CC1` [Perillyl alcohol]: the cell viability was determined as 1.16.

Turning to `CN(C)CC(c1ccc(O)cc1)C1(O)CCCCC1` (stereo not given) [Desvenlafaxine], the cell viability was determined as 0.779.

Turning to `O=C(NOCC(O)CO)c1cc(Br)c(F)c(F)c1Nc1ccc(I)cc1F` (stereo not given), the cell viability stood at 0.907.

`O=C(O)COc1ccc(Br)cc1/C=C1\SC(=S)N(Cc2cccnc2)C1=O` [Skp2 Inhibitor C1] came in with a cell viability of 1.08.

Compound `Cc1ccc2nc(N)[nH]c(=O)c2c1Sc1ccncc1` [Nolatrexed] had a cell viability of 1.13.

As for `CC(C)c1c(-c2ccccc2)nc2c(C#N)c[nH]n2c1=O`, the cell viability amounted to 1.

In turn, `O=C(Nc1ccccc1Br)N[C@@H]1CCN(c2ccc(C(F)(F)F)cn2)C1` returned a cell viability of 1.04.

In the case of `Cc1ccccc1C(C(=O)NC1CCCCC1)N(C(=O)Cn1cnc2ccccc21)c1cccc(F)c1` (stereo not given), the cell viability was 1.18.

For `COc1c(N2CCNC(C)C2)c(F)cc2c(=O)c(C(=O)O)cn(C3CC3)c12` (stereo not given) [Gatifloxacin], the cell viability came out at 0.927.

In the case of `O=C(c1ccccc1)c1ccc2n1CCC2C(=O)O` (stereo not given) [Ketorolac tromethamine salt], the cell viability turned out to be 1.12.

For `O=C(C[S+]([O-])Cc1ccco1)NC/C=C\COc1cc(CN2CCCCC2)ccn1` (stereo not given) [Lafutidine], the cell viability amounted to 1.06.

In the case of `CCC(=O)O[C@]1(C(=O)CO)CC[C@H]2[C@@H]3CCC4=CC(=O)CC[C@]4(C)[C@H]3CC[C@@]21C` [17 alpha-propionate], the cell viability came to 0.936.

Take `CC(C)C(C)C(O)C(O)C(C)C1CCC2C3COC(=O)C4CC(O)C(O)CC4(C)C3CCC12C` (stereo not given) [Brassinolide]: the cell viability stood at 1.01.

`CCC(=O)Nc1cccc(Oc2nc(Nc3ccc(N4CCN(C)CC4)cc3OC)ncc2Cl)c1` returned a cell viability of 1.16.

In turn, `C=CC(=O)Nc1cccc(Nc2nc(Nc3ccc(OCCOC)cc3)ncc2F)c1` [Spebrutinib] came in with a cell viability of 0.774.

`N#Cc1c(NC(=O)c2cccc3ccccc23)sc2c1CCCC2` yielded a cell viability of 0.789.

`COC(=O)Nc1nc2cc([S+]([O-])c3ccccc3)ccc2[nH]1` (stereo not given) [Oxfendazole] registered a cell viability of 1.22.

Turning to `Nc1ccn([C@@H]2CS[C@H](CO)O2)c(=O)n1` [Lamivudine], the cell viability was found to be 1.09.

For `CCc1c(Cl)c(O)c(Cl)c(O)c1C(=O)O[C@H]1[C@H](O)[C@H](OC)[C@H](OC/C2=C\C=C\C[C@H](O)/C(C)=C/[C@H](CC)[C@@H](O[C@@H]3OC(C)(C)[C@@H](OC(=O)C(C)C)[C@H](O)[C@@H]3O)/C(C)=C/C(C)=C/C[C@@H]([C@@H](C)O)OC2=O)O[C@@H]1C` [Fidaxomicin], the cell viability amounted to 1.05.

Turning to `Cc1cc(N)c2ccccc2[n+]1CCCCCCCCCC[n+]1c(C)cc(N)c2ccccc21` [Dequalinium chloride], the cell viability turned out to be 1.

In turn, `COc1ccccc1OCC(O)COC(N)=O` (stereo not given) [Methocarbamol] gave a cell viability of 0.947.

`COc1cc(N2CCC(N3CCN(C)CC3)CC2)ccc1Nc1ncc(Cl)c(Nc2ccccc2P(C)(C)=O)n1` [Brigatinib] displayed a cell viability of 0.754.

For `O=C1NCCCc2c1oc1ccc(O)cc21`, the cell viability came out at 0.924.

Consider `O=C1N[C@@H](Cc2c[nH]c3ccccc23)C(=O)N2CCC[C@@H]12` [Brevianamide F], for which the cell viability came out at 1.06.

Turning to `O=C(Nc1cc(C(F)(F)F)ccc1O)Nc1cc(C(F)(F)F)ccc1O`, the cell viability was 0.826.

`CCCCC1=NC2(CCCC2)C(=O)N1Cc1ccc(-c2ccccc2-c2nnn[nH]2)cc1` [Irbesartan] showed a cell viability of 0.724.

In turn, `NC(=O)Cc1cccc(C(=O)c2ccccc2)c1N` [Nepafenac] yielded a cell viability of 1.04.

As to `C[C@H]1COC2=C1C(=O)C(=O)c1c2ccc2c1CCCC2(C)C` [Cryptotanshinone], the cell viability stood at 0.78.

In the case of `CN(C)CC[C@H](CSc1ccccc1)Nc1ccc(S(=O)(=O)NC(=O)c2ccc(N3CCN(Cc4ccccc4-c4ccc(Cl)cc4)CC3)cc2)cc1[N+](=O)[O-]`, the cell viability is 1.09.

`COc1ccc(-c2coc3cc(O[C@@H]4O[C@H](CO)[C@@H](O)[C@H](O)[C@H]4O)ccc3c2=O)cc1` [Ononin]: the cell viability came to 1.03.

For the compound `CC[C@H]1OC(=O)[C@H](C)[C@@H](O[C@H]2C[C@@](C)(OC)[C@@H](O)[C@H](C)O2)[C@H](C)[C@@H](O[C@@H]2O[C@H](C)C[C@H](N(C)C)[C@H]2O)[C@](C)(OC)C[C@@H](C)C(=O)[C@H](C)[C@@H](O)[C@]1(C)O` [Clarithromycin], the cell viability was 1.01.

Compound `O=[N+]([O-])c1ccc2c(c1)S(=O)(=O)C=C2` [Stattic] registered a cell viability of 1.03.

The compound `CCC(=O)N1CCOc2c(cc(-c3ccc(OC)c(OC)c3)cc2OC[C@H]2CCCN(C)C2)C1` [I-CBP112 hydrochloride] came in with a cell viability of 0.963.

Compound `COc1cc(O)c(CC=C(C)C)c2c1C(=O)CC(c1ccc(O)cc1)O2` (stereo not given) [Isoxanthohumol] showed a cell viability of 1.15.

For `c1ccc(CNc2ccccc2)cc1` [N-Phenylbenzylamine], the cell viability came to 1.23.

`Nc1ccccc1NC(=O)c1ccc(CNC(=O)OCc2cccnc2)cc1` [Entinostat] gave a cell viability of 0.764.

`CCCC[S+]([O-])c1sc2nc(-c3cccs3)cc(-c3ccccc3)c2c1N` (stereo not given) yielded a cell viability of 1.

Turning to `N=C(N)NC(=O)c1nc(Cl)c(N)nc1N` [Amiloride hydrochloride], the cell viability turned out to be 1.11.

Consider `C[C@@H]1CC[C@]2(C(=O)O)CC[C@]3(C)C(=CC[C@@H]4[C@@]5(C)CC[C@H](O)[C@@](C)(CO)[C@@H]5CC[C@]43C)[C@@H]2[C@]1(C)O` [Rutundic acid], for which the cell viability was determined as 1.02.

For the compound `CN(C)C(=O)COC(=O)Cc1ccc(OC(=O)c2ccc(NC(=N)N)cc2)cc1` [Camostat mesilate], the cell viability was 0.956.
